# Some of the results follow.
# B1: PNA (Arachis hypogaea), P02872 (protein)
# chain: MKPFCVFLTFFLLLAASSKKVDSAETVSFNFNSFSEGNPAINFQGDVTVLSNGNIQLTNLNKVNSVGRVLYAMPVRIWSSATGNVASFLTSFSFEMKDIKDYDPADGIIFFIAPEDTQIPAGSIGGGTLGVSDTKGAGHFVGVEFDTYSNSEYNDPPTDHVGIDVNSVDSVKTVPWNSVSGAVVKVTVIYDSSTKTLSVAVTNDNGDITTIAQVVDLKAKLPERVKFGFSASGSLGGRQIHLIRSWSFTSTLITTTRRSIDNNEKKIMNMASA
# Assays:
# Assay in all cases: glycan array binding signal (z-score within array); higher = stronger binding
# Conditions in all cases: glycan notation: IUPAC condensed, linker removed
# [1] = target: Gal(b1-4)GlcNAc(b1-3)Gal(b1-4)GlcNAc(b1-3)Gal(b1-4)GlcNAc(b1-2)[Gal(b1-4)GlcNAc(b1-3)Gal(b1-4)GlcNAc(b1-3)Gal(b1-4)GlcNAc(b1-6)]Man(a1-6)[Gal(b1-4)GlcNAc(b1-3)Gal(b1-4)GlcNAc(b1-3)Gal(b1-4)GlcNAc(b1-2)Man(a1-3)]Man(b1-4)GlcNAc(b1-4)[Fuc(a1-6)]GlcNAc
# How it was run: (§1)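 Columns mapping to the same glycan were averaged after glycan names were converted to IUPAC-condensed notation. The data come from 3228 arrays in the Consortium for Functional Glycomics database, limited to those with an available protein sequence. Binding is reported as a within-array Z-score averaged across arrays of one protein sequence and across linkers.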
# [2] = target: Gal(b1-4)GlcNAc(b1-3)Gal(b1-4)GlcNAc(b1-3)Gal(b1-4)GlcNAc(b1-3)Gal(b1-4)GlcNAc(b1-2)Man(a1-3)[Gal(b1-4)GlcNAc(b1-3)Gal(b1-4)GlcNAc(b1-3)Gal(b1-4)GlcNAc(b1-3)Gal(b1-4)GlcNAc(b1-2)Man(a1-6)]Man(b1-4)GlcNAc(b1-4)GlcNAc
# How it was run: as §1
# [3] = target: Gal(b1-4)GlcNAc(b1-3)Gal(b1-4)GlcNAc(b1-3)Gal(b1-4)GlcNAc(b1-3)Gal(b1-4)GlcNAc(b1-2)Man(a1-3)[Gal(b1-4)GlcNAc(b1-3)Gal(b1-4)GlcNAc(b1-3)Gal(b1-4)GlcNAc(b1-3)Gal(b1-4)GlcNAc(b1-2)Man(a1-6)]Man(b1-4)GlcNAc(b1-4)[Fuc(a1-6)]GlcNAc
# How it was run: as §1
# [4] = target: Gal(b1-4)GlcNAc(b1-3)Gal(b1-4)GlcNAc(b1-3)Gal(b1-4)GlcNAc(b1-3)Gal(b1-4)GlcNAc(b1-2)[Gal(b1-4)GlcNAc(b1-3)Gal(b1-4)GlcNAc(b1-3)Gal(b1-4)GlcNAc(b1-3)Gal(b1-4)GlcNAc(b1-6)]Man(a1-6)[Gal(b1-4)GlcNAc(b1-3)Gal(b1-4)GlcNAc(b1-3)Gal(b1-4)GlcNAc(b1-3)Gal(b1-4)GlcNAc(b1-2)Man(a1-3)]Man(b1-4)GlcNAc(b1-4)[Fuc(a1-6)]GlcNAc
# How it was run: as §1
# [5] = target: Gal(b1-4)GlcNAc(b1-3)Gal(b1-4)GlcNAc(b1-3)Gal(b1-4)GlcNAc(b1-3)Gal(b1-4)GlcNAc(b1-3)Gal(b1-4)GlcNAc(b1-2)Man(a1-3)[Gal(b1-4)GlcNAc(b1-3)Gal(b1-4)GlcNAc(b1-3)Gal(b1-4)GlcNAc(b1-3)Gal(b1-4)GlcNAc(b1-3)Gal(b1-4)GlcNAc(b1-2)Man(a1-6)]Man(b1-4)GlcNAc(b1-4)GlcNAc
# How it was run: as §1
# [6] = target: Gal(b1-4)GlcNAc(b1-3)Gal(b1-4)GlcNAc(b1-3)Gal(b1-4)GlcNAc(b1-3)Gal(b1-4)GlcNAc(b1-3)Gal(b1-4)GlcNAc(b1-2)Man(a1-3)[Gal(b1-4)GlcNAc(b1-3)Gal(b1-4)GlcNAc(b1-3)Gal(b1-4)GlcNAc(b1-3)Gal(b1-4)GlcNAc(b1-3)Gal(b1-4)GlcNAc(b1-2)Man(a1-6)]Man(b1-4)GlcNAc(b1-4)[Fuc(a1-6)]GlcNAc
# How it was run: as §1
# [7] = target: Gal(b1-4)GlcNAc(b1-3)Gal(b1-4)GlcNAc(b1-3)Gal(b1-4)GlcNAc(b1-3)Gal(b1-4)GlcNAc(b1-3)Gal(b1-4)GlcNAc(b1-2)[Gal(b1-4)GlcNAc(b1-3)Gal(b1-4)GlcNAc(b1-3)Gal(b1-4)GlcNAc(b1-3)Gal(b1-4)GlcNAc(b1-3)Gal(b1-4)GlcNAc(b1-6)]Man(a1-6)[Gal(b1-4)GlcNAc(b1-3)Gal(b1-4)GlcNAc(b1-3)Gal(b1-4)GlcNAc(b1-3)Gal(b1-4)GlcNAc(b1-3)Gal(b1-4)GlcNAc(b1-2)Man(a1-3)]Man(b1-4)GlcNAc(b1-4)[Fuc(a1-6)]GlcNAc
# How it was run: as §1
# [8] = target: Gal(b1-4)GlcNAc(b1-3)Gal(b1-4)GlcNAc(b1-3)Gal(b1-4)GlcNAc(b1-3)Gal(b1-4)GlcNAc(b1-3)Gal(b1-4)GlcNAc(b1-3)Gal(b1-4)GlcNAc(b1-2)Man(a1-3)[Gal(b1-4)GlcNAc(b1-3)Gal(b1-4)GlcNAc(b1-3)Gal(b1-4)GlcNAc(b1-3)Gal(b1-4)GlcNAc(b1-3)Gal(b1-4)GlcNAc(b1-3)Gal(b1-4)GlcNAc(b1-2)Man(a1-6)]Man(b1-4)GlcNAc(b1-4)GlcNAc
# How it was run: as §1
# [9] = target: Gal(b1-4)GlcNAc(b1-3)Gal(b1-4)GlcNAc(b1-3)GalNAc
# How it was run: as §1
# [10] = target: Gal(b1-4)GlcNAc(b1-3)Gal(b1-4)GlcNAc(b1-3)[Gal(b1-4)GlcNAc(b1-3)Gal(b1-4)GlcNAc(b1-6)]GalNAc
# How it was run: as §1
# [11] = target: Gal(b1-4)GlcNAc(b1-3)Gal(b1-4)GlcNAc(b1-6)[Gal(b1-3)]GalNAc
# How it was run: as §1
# [12] = target: Gal(b1-4)GlcNAc(b1-3)Gal(b1-4)[Fuc(a1-3)GlcNAc(b1-6)]Gal(b1-4)Glc
# How it was run: as §1
# [13] = target: Gal(b1-4)GlcNAc(b1-3)Gal(b1-4)[Fuc(a1-3)]GlcNAc(b1-3)Gal(b1-4)[Fuc(a1-3)]GlcNAc
# How it was run: as §1
# [14] = target: Gal(b1-4)GlcNAc(b1-3)GalNAc
# How it was run: as §1
# [15] = target: Gal(b1-4)GlcNAc(b1-3)[Fuc(a1-3)GlcNAc(b1-6)]Gal(b1-4)Glc
# How it was run: as §1
# [16] = target: Gal(b1-4)GlcNAc(b1-3)[Fuc(a1-3)[Gal(b1-4)]GlcNAc(b1-6)]Gal(b1-4)Glc
# How it was run: as §1
# [17] = target: Gal(b1-4)GlcNAc(b1-3)[Gal(b1-4)GlcNAc(b1-6)]Gal(b1-4)Glc
# How it was run: as §1
# [18] = target: Gal(b1-4)GlcNAc(b1-3)[Gal(b1-4)GlcNAc(b1-6)]Gal(b1-4)GlcNAc
# How it was run: as §1
# [19] = target: Gal(b1-4)GlcNAc(b1-3)[Gal(b1-4)GlcNAc(b1-6)]Gal(b1-4)GlcNAc(b1-3)Gal(b1-4)Glc
# How it was run: as §1
# [20] = target: Gal(b1-4)GlcNAc(b1-3)[Gal(b1-4)GlcNAc(b1-6)]Gal(b1-4)GlcNAc(b1-3)[Gal(b1-4)GlcNAc(b1-6)]Gal(b1-4)GlcNAc(b1-3)Gal(b1-4)Glc
# How it was run: as §1
# [21] = target: Gal(b1-4)GlcNAc(b1-3)[Gal(b1-4)GlcNAc(b1-6)]Gal(b1-4)GlcNAc(b1-3)[Gal(b1-4)GlcNAc(b1-6)]Gal(b1-4)GlcNAc(b1-3)[Gal(b1-4)GlcNAc(b1-6)]Gal(b1-4)GlcNAc(b1-3)Gal(b1-4)Glc
# How it was run: as §1
# [22] = target: Gal(b1-4)GlcNAc(b1-3)[Gal(b1-4)GlcNAc(b1-6)]Gal(b1-4)GlcNAc(b1-3)[Gal(b1-4)GlcNAc(b1-6)]Gal(b1-4)GlcNAc(b1-3)[Gal(b1-4)GlcNAc(b1-6)]Gal(b1-4)GlcNAc(b1-3)[Gal(b1-4)GlcNAc(b1-6)]Gal(b1-4)GlcNAc(b1-3)Gal(b1-4)Glc
# How it was run: as §1
# [23] = target: Gal(b1-4)GlcNAc(b1-3)[Gal(b1-4)GlcNAc(b1-6)]GalNAc
# How it was run: as §1
# [24] = target: Gal(b1-4)GlcNAc(b1-3)[GlcNAc(b1-6)]Gal(b1-4)GlcNAc
# How it was run: as §1
# [25] = target: Gal(b1-4)GlcNAc(b1-6)Gal(b1-4)GlcNAc
# How it was run: as §1
# [26] = target: Gal(b1-4)GlcNAc(b1-6)Gal(b1-4)GlcNAc(b1-6)GalNAc
# How it was run: as §1
# [27] = target: Gal(b1-4)GlcNAc(b1-6)GalNAc
# How it was run: as §1
# [28] = target: Gal(b1-4)GlcNAc(b1-6)[Gal(b1-3)]GalNAc
# How it was run: as §1
# [29] = target: Gal(b1-4)GlcNAc(b1-6)[Gal(b1-4)GlcNAc(b1-3)]GalNAc
# How it was run: as §1
# [30] = target: Gal(b1-4)GlcNAc6P
# How it was run: as §1
# [31] = target: Gal(b1-6)Gal
# How it was run: as §1
# [32] = target: Gal(b1-6)GalNAc
# How it was run: as §1
# [33] = target: Gal3S(b1-3)GalNAc
# How it was run: as §1
# [34] = target: Gal3S(b1-3)GalNAc(b1-4)Gal3S(b1-4)Glc
# How it was run: as §1
# [35] = target: Gal3S(b1-3)GlcNAc
# How it was run: as §1
# [36] = target: Gal3S(b1-3)[Fuc(a1-4)]GlcNAc
# How it was run: as §1
# [37] = target: Gal3S(b1-3)[Fuc(a1-4)]GlcNAc(b1-3)Gal(b1-4)Glc
# How it was run: as §1
# [38] = target: Gal3S(b1-4)Glc
# How it was run: as §1
binder,measurement,setting,value
B1,glycan array binding signal (z-score),[1],-0.179
same,glycan array binding signal (z-score),[2],-0.229
same,glycan array binding signal (z-score),[3],-0.168
same,glycan array binding signal (z-score),[4],-0.225
same,glycan array binding signal (z-score),[5],-0.247
same,glycan array binding signal (z-score),[6],-0.218
same,glycan array binding signal (z-score),[7],-0.203
same,glycan array binding signal (z-score),[8],-0.332
same,glycan array binding signal (z-score),[9],0.16
same,glycan array binding signal (z-score),[10],0.479
same,glycan array binding signal (z-score),[11],1.59
same,glycan array binding signal (z-score),[12],-0.095
same,glycan array binding signal (z-score),[13],-0.115
same,glycan array binding signal (z-score),[14],-0.097
same,glycan array binding signal (z-score),[15],-0.247
same,glycan array binding signal (z-score),[16],-0.073
same,glycan array binding signal (z-score),[17],0.007
same,glycan array binding signal (z-score),[18],-0.153
same,glycan array binding signal (z-score),[19],-0.162
same,glycan array binding signal (z-score),[20],1.2
same,glycan array binding signal (z-score),[21],1.14
same,glycan array binding signal (z-score),[22],4.16
same,glycan array binding signal (z-score),[23],-0.215
same,glycan array binding signal (z-score),[24],-0.151
same,glycan array binding signal (z-score),[25],-0.129
same,glycan array binding signal (z-score),[26],-0.193
same,glycan array binding signal (z-score),[27],-0.137
same,glycan array binding signal (z-score),[28],5.42
same,glycan array binding signal (z-score),[29],-0.112
same,glycan array binding signal (z-score),[30],-0.238
same,glycan array binding signal (z-score),[31],-0.246
same,glycan array binding signal (z-score),[32],0
same,glycan array binding signal (z-score),[33],-0.129
same,glycan array binding signal (z-score),[34],-0.195
same,glycan array binding signal (z-score),[35],-0.183
same,glycan array binding signal (z-score),[36],-0.143
same,glycan array binding signal (z-score),[37],-0.195
same,glycan array binding signal (z-score),[38],-0.165
